Here are results for 35 cell lines from the supplement of paper PMC4967469.

The IC50 comes from the fitted curve, where viability falls to half of the control; a fit beyond the top or the lowest dose is shown as a bound at that dose. AUC sums up the same curve from the lowest dose to the 256-fold higher top dose; it is 1 without any effect and falls as sensitivity rises. A top dose marked as inferred was calculated from the reported fits.

Compound in one test: Cc1cccc(-c2[nH]c(C(C)(C)C)nc2-c2ccc3nccnc3c2)n1 [SB-525334]
Briefly: Viability of human cancer cell lines after 72 h of drug (GDSC screen). Conditions: top dose 20 µM; top dose inferred. Here is the method:
(§1)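 Human cancer cell lines in 384-well plates, medium with 10% serum, drug for 72 h over a 256-fold dose range (nine 2-fold or five 4-fold steps up to the top dose). Adherent lines were fixed and stained with the nucleic acid dye Syto60, suspension lines read with resazurin; signal relative to control wells, capped at 0 and 100%. One two-parameter sigmoid per drug and line, fitted in a mixed model over all curves with the slope shared within a line.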
For the cell line CHSA0011 (chondrosarcoma, adherent), the AUC amounted to 0.963 and the IC50 is above 20 µM.

As for COLO-783 (melanoma, adherent), the AUC amounted to 0.944 and the IC50 was above 20 µM.

Take EFM-192A (breast, adherent): the AUC was 0.963 and the IC50 is above 20 µM.

As for H3118 (head and neck, adherent), the AUC was determined as 0.966 and the IC50 was above 20 µM.

As to “HARA (lung squamous cell carcinoma, adherent)”, the AUC was 0.955 and the IC50 was above 20 µM.

Regarding “HCC-15 (lung squamous cell carcinoma, adherent)”, the AUC was 0.971 and the IC50 is above 20 µM.

Turning to Hs766T (pancreas, adherent), the AUC was 0.971 and the IC50 is above 20 µM.

Take Hs-578-T (breast, adherent): the AUC came to 0.981 and the IC50 was above 20 µM.

As to JHU-022 (head and neck, adherent), the AUC amounted to 0.942 and the IC50 was above 20 µM.

As for JIMT-1 (breast, adherent), the AUC came to 0.982 and the IC50 was above 20 µM.

As to “LC-1-sq (lung squamous cell carcinoma, adherent)”, the AUC came out at 0.985 and the IC50 is above 20 µM.

In the case of MDA-MB-330 (breast, adherent), the AUC turned out to be 0.98 and the IC50 was above 20 µM.

MDA-MB-415 (breast, adherent): the AUC was found to be 0.983 and the IC50 is above 20 µM.

Regarding MDA-MB-468 (breast, adherent), the AUC was 0.718 and the IC50 came out at 5.05 µM.

Regarding MOG-G-UVW (glioma, adherent), the AUC came to 0.966 and the IC50 was above 20 µM.

Turning to “NCI-H841 (small cell lung carcinoma, adherent)”, the AUC came to 0.938 and the IC50 was above 20 µM.

On to “NCI-H1688 (small cell lung carcinoma, adherent)”, for which the AUC amounted to 0.806 and the IC50 came out at 11.4 µM.

As to “NCI-H1944 (lung adenocarcinoma, adherent)”, the AUC came to 0.769 and the IC50 came to 8.04 µM.

“NCI-H2110 (non-small cell lung carcinoma, adherent)”: the AUC came to 0.986 and the IC50 is above 20 µM.

Take OE21 (oesophagus, adherent): the AUC was found to be 0.955 and the IC50 is above 20 µM.

As for OV-90 (ovary, adherent), the AUC worked out at 0.869 and the IC50 is above 20 µM.

For the cell line OVISE (ovary, adherent), the AUC amounted to 0.908 and the IC50 is above 20 µM.

Consider OVTOKO (ovary, adherent), for which the AUC worked out at 0.941 and the IC50 was above 20 µM.

Regarding PANC-02-03 (pancreas, adherent), the AUC came to 0.976 and the IC50 is above 20 µM.

On to PCI-4B (head and neck, adherent), for which the AUC came out at 0.976 and the IC50 is above 20 µM.

On to PCI-6A (head and neck, adherent), for which the AUC is 0.695 and the IC50 stood at 4.34 µM.

For the cell line PEO1 (ovary, adherent), the AUC amounted to 0.971 and the IC50 is above 20 µM.

RCC-AB (kidney, adherent): the AUC was found to be 0.827 and the IC50 came out at 17.7 µM.

Turning to RCC-FG2 (kidney, adherent), the AUC worked out at 0.978 and the IC50 is above 20 µM.

For the cell line RCC-JF (kidney, adherent), the AUC was determined as 0.843 and the IC50 stood at 16.8 µM.

Consider RCC-JW (kidney, adherent), for which the AUC worked out at 0.974 and the IC50 is above 20 µM.

Turning to SK-GT-4 (oesophagus, adherent), the AUC is 0.917 and the IC50 was above 20 µM.

As for TE-4 (oesophagus, adherent), the AUC was determined as 0.976 and the IC50 is above 20 µM.

Compound in the next test: CNC(=O)c1ccc(Nc2cc(Nc3ccccc3S(=O)(=O)C(C)C)c3cc[nH]c3n2)nc1 [HG-5-113-01]
The description is as above. The following applies: top dose 10 µM; top dose inferred. Here is the method: as §1
On to 451Lu (melanoma, adherent), for which the AUC stood at 0.902 and the IC50 is above 10 µM.

In the case of ASH-3 (thyroid, adherent), the AUC is 0.779 and the IC50 worked out at 4.09 µM.

CHSA0011 (chondrosarcoma, adherent): the AUC worked out at 0.764 and the IC50 was found to be 5.13 µM.

In the case of COLO-783 (melanoma, adherent), the AUC was determined as 0.931 and the IC50 was above 10 µM.

For EFM-192A (breast, adherent), the AUC was found to be 0.843 and the IC50 worked out at 8.31 µM.

For the cell line H3118 (head and neck, adherent), the AUC was 0.72 and the IC50 turned out to be 2.81 µM.

On to “HARA (lung squamous cell carcinoma, adherent)”, for which the AUC turned out to be 0.756 and the IC50 turned out to be 3.95 µM.

Take “HCC-15 (lung squamous cell carcinoma, adherent)”: the AUC stood at 0.767 and the IC50 is 4.75 µM.

As to Hs766T (pancreas, adherent), the AUC was 0.857 and the IC50 was above 10 µM.

Turning to Hs-578-T (breast, adherent), the AUC was 0.899 and the half-maximal inhibitory concentration (IC50) is above 10 µM.

Consider JHU-022 (head and neck, adherent), for which the AUC is 0.777 and the IC50 is 5.15 µM.

In the case of JIMT-1 (breast, adherent), the AUC amounted to 0.845 and the IC50 was 8.08 µM.

For “LC-1-sq (lung squamous cell carcinoma, adherent)”, the AUC stood at 0.786 and the IC50 was found to be 5.11 µM.

For MDA-MB-330 (breast, adherent), the AUC is 0.937 and the IC50 was above 10 µM.

As to MDA-MB-415 (breast, adherent), the AUC was found to be 0.934 and the IC50 is above 10 µM.

On to MDA-MB-468 (breast, adherent), for which the AUC worked out at 0.663 and the IC50 was determined as 1.74 µM.

Regarding MOG-G-UVW (glioma, adherent), the AUC turned out to be 0.684 and the IC50 came out at 2.01 µM.

On to “NCI-H841 (small cell lung carcinoma, adherent)”, for which the AUC was 0.802 and the IC50 came to 4.95 µM.

Turning to “NCI-H1688 (small cell lung carcinoma, adherent)”, the AUC stood at 0.899 and the IC50 is above 10 µM.

Consider “NCI-H1944 (lung adenocarcinoma, adherent)”, for which the AUC was 0.784 and the IC50 was determined as 4.54 µM.

Consider “NCI-H2110 (non-small cell lung carcinoma, adherent)”, for which the AUC stood at 0.767 and the IC50 was determined as 3.81 µM.

On to OE21 (oesophagus, adherent), for which the AUC is 0.709 and the IC50 is 3.08 µM.

For OV-90 (ovary, adherent), the AUC was 0.769 and the IC50 was determined as 4.85 µM.

Regarding OVISE (ovary, adherent), the AUC was determined as 0.819 and the IC50 came out at 8.26 µM.

For OVTOKO (ovary, adherent), the AUC is 0.721 and the IC50 is 3.19 µM.

Regarding PANC-02-03 (pancreas, adherent), the AUC was 0.806 and the IC50 stood at 6.32 µM.

Consider PCI-4B (head and neck, adherent), for which the AUC stood at 0.689 and the IC50 is 2.05 µM.

On to PCI-6A (head and neck, adherent), for which the AUC is 0.8 and the IC50 is 4.72 µM.

Consider PEO1 (ovary, adherent), for which the AUC is 0.652 and the IC50 amounted to 1.68 µM.

RCC-AB (kidney, adherent): the AUC is 0.883 and the IC50 is above 10 µM.

As to RCC-FG2 (kidney, adherent), the AUC was determined as 0.825 and the IC50 worked out at 8.31 µM.

RCC-JF (kidney, adherent): the AUC worked out at 0.754 and the IC50 amounted to 3.75 µM.

As for RCC-JW (kidney, adherent), the AUC came out at 0.758 and the IC50 was found to be 3.57 µM.

For SK-GT-4 (oesophagus, adherent), the AUC worked out at 0.837 and the IC50 was 9.17 µM.

Consider TE-4 (oesophagus, adherent), for which the AUC was 0.733 and the IC50 was 2.87 µM.
